According to the supplement of paper PMC3334620:
The full ranking holds about 33,000 sequences; the median of “E-score (-0.5 to 0.5)” is about -0.012, and the highest 2% start at about 0.29. Some of the results follow.

Molecular target: T1, Ybr033w (UniProt P38073)
T1 sequence: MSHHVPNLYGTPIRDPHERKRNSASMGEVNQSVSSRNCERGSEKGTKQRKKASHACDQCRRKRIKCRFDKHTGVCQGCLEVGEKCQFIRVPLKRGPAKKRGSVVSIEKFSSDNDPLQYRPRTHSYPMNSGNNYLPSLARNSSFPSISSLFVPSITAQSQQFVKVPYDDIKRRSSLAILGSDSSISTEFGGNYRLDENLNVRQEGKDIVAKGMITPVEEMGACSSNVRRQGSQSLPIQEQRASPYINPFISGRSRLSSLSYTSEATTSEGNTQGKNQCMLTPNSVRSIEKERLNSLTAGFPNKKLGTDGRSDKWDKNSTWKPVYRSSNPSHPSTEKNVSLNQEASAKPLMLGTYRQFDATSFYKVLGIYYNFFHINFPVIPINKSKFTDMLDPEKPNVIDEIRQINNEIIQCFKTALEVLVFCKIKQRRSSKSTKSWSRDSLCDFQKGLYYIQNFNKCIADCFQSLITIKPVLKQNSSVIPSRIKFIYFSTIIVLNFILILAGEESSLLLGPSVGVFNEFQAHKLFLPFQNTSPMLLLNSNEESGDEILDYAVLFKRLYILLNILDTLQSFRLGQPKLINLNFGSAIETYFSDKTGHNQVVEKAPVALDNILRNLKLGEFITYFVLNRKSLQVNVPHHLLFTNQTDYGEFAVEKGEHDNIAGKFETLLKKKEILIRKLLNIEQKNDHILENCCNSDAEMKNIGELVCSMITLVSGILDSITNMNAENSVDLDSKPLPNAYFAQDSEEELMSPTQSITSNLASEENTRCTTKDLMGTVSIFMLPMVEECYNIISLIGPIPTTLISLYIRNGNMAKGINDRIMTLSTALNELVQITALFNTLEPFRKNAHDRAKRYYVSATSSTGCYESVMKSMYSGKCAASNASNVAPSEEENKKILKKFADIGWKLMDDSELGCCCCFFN
Assay: PBM E-score (8-mer binding enrichment) (E-score (-0.5 to 0.5)); higher = stronger / more preferred TF binding; most listed sequences are background and not binding sites
Details: protein concentration: 200 nM; construct: GST-full length
How it was run: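 Universal all-10-mer Agilent arrays, double-stranded by primer extension on fresh or once-stripped slides, were probed with about 100-200 nM GST-tagged yeast transcription factors made by PURExpress. Fluorescent anti-GST detected bound protein, and masliner normalised the scans. E-scores from the Universal PBM Analysis Suite were given to each ungapped eight-base word pooled with its reverse complement.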

Sequence | PBM E-score
CAATAGCG | -0.00568
ACACATTG | 0.0863
CGCTGTAA | 0.0392
ACGAACAT | 0.151
ATTTTCGG | 0.161
TTATACAA | 0.263
ATTGACTG | -0.0296
CATCTCCA | -0.00049
CCGGGACG | -0.191
ACTCCCAT | -0.00516
GGCCTCCC | -0.219
AGAATTCA | 0.116
CTTCTGGA | 0.0505
ACTGCAGT | -0.218
TGCTTCCA | -0.105
AGGGCCAG | -0.163
GTGAGCAA | -0.0113
GCGATGCC | -0.295
CCCCTCAC | -0.134
GAGTCAGC | -0.162
CCTAGGAC | -0.087
GGAACTTA | 0.15
AGACATGA | 0.0107
GCTTCTGA | -0.0755
GCTACGCA | -0.00233

Sequence | PBM E-score
ATTCACAC | 0.0769
AAGAGCGT | 0.00139
AAGATAGG | 0.00494
AAGGCCCG | -0.138
ATTGGGGC | -0.0872
AGCATATG | 0.0436
ACAAATCG | 0.145
AGATAGAA | 0.0422
ATCAACAG | 0.269
CTTATCGA | 0.215
TAAACCCA | 0.169
CATGAGGC | -0.227
GTCTATAA | 0.163
ACACTATA | 0.238
AGCTCCAT | -0.166
GGTATATA | 0.134
CTCCGTGC | -0.113
ACAGGGAC | -0.0996
GCGCTTAC | -0.0871
AACAACAT | 0.178
CACCCGCA | -0.177
GACATAAC | 0.169
AGATTTTG | 0.252
CACAGAGC | -0.121
AGTGTAGG | -0.0647

Sequence | PBM E-score
TGCGGACA | 0.0588
GGGCTACA | -0.244
ACTCAAGT | 0.0149
CGGTAAGC | -0.0409
AGCTTAAA | 0.0992
AACCTATG | 0.107
GTCGCGAC | 0.234
CCGCAAGC | -0.195
CACGTGCA | -0.267
CTTAGCAA | 0.0907
GAAATTCA | 0.228
ACTGATTC | -0.0423
ACAAAGGC | -0.0579
AATGTGCG | 0.0594
AGAACATC | 0.101
CTAACTTC | 0.172
GGCACTGA | -0.0563
AGCTTCTG | -0.0239
AACGTGCC | -0.111
GCTTCAAA | 0.119
GGACCTCA | -0.205
ATGAGGGC | -0.175
CGATCAGC | -0.0315
AAGGTTAG | -0.121
AGATCCCG | 0.103

Sequence | PBM E-score
GGCCAGTA | -0.199
CGTATTTA | 0.311
CAGGGCCC | -0.323
ACTCTCAA | 0.161
AGGCTACA | -0.123
CCAGCACC | -0.243
CCTTACCA | -0.00851
ACCACCCC | -0.279
AATGTTAT | 0.194
ACTTAAAG | -0.119
CTGTTAAC | 0.151
CACCTCTA | 0.0186
CAACGCCC | -0.241
CGGCTTGA | 0.00226
TAAACAAA | 0.245
CCTTAATC | 0.12
CGCTGCTC | -0.233
AAATTCGC | 0.216
ATCGCGTG | -0.0579
CAATACAG | -0.105
CCGACAGG | -0.0474
CTACAATC | 0.233
CGGATATA | 0.345
CTTTGGAA | 0.0885
CAGCTCCC | -0.352

Sequence | PBM E-score
GGTGACGA | 0.0876
GAACCTCC | -0.195
ATTAAACA | 0.312
AATATCTA | 0.23
ACTGAATG | 0.0593
CGCCTACG | -0.187
GGAACCTA | -0.0963
ATGAACGA | 0.0138
ATTAGGCG | -0.0373
AATAATCT | 0.285
TGACCAAA | 0.0924
CCCTAGGG | -0.259
ATGACATC | 0.0254
CACCTCAA | 0.0296
AAAGACCA | -0.147
TTCAGGAA | 0.104
CTTGCCAA | 0.0434
CACATGCC | -0.0396
CTTGGGGA | -0.145
ACTCGCAT | 0.106
GTTAGATA | 0.283
CCGTAAGG | -0.373
TGACAACA | -0.00809
ACTAGGCC | -0.185
AGAGGTGG | -0.156

Sequence | PBM E-score
AGTAAAGG | -0.0445
GAGCAGAC | -0.171
CACGCGAG | -0.0117
TCCAAGCA | 0.0722
CTGTCTAA | -0.0578
TCTAGGCA | 0.111
CACGGTCG | -0.258
GATTCCGC | -0.0637
GGCTTTTA | -0.17
ACGGTGGG | -0.186
ATCGTAAC | 0.121
CGGTACCG | -0.0641
AAATAAGC | 0.0677
ACTTGTAA | 0.0833
CGCGAGGA | -0.0663
AATATGTC | 0.142
GCTGGTCC | -0.271
GCCAACTA | -0.0239
ATTTAGTC | 0.0709
CGAAAAGC | -0.0982
CAGAGGAA | -0.0525
CCCGTGTC | -0.274
CCATTCGC | -0.238
TGTCGTAA | -0.0536
CATCGGGC | -0.228

Sequence | PBM E-score
AAAGTAAG | 0.0621
TGGATACA | 0.0503
CTAAACAC | 0.0111
CCCGTTGA | -0.125
GGCGGACC | -0.288
GCCAGCAA | -0.0918
ACGACTAA | -0.0572
CAAGGCCA | -0.0609
CGTGAGGC | -0.115
CACCTCAG | -0.0727
AGGGATCG | -0.0828
CAGATTGC | -0.00774
ACCGCCCT | -0.152
ACGACTAT | 0.049
CTCATCCC | -0.189
GGCGGGAA | 0.0258
CATCGATA | 0.166
ACACCCCC | -0.362
CGCCGACG | -0.279
CAGCTTCC | -0.0219
GGCGCCAC | -0.329
GTGGGAAC | -0.164
